PubChem BioAssay AID652104 (National Center for Advancing Translational Sciences (NCATS), 2013)
About 7,200 (1.8%) of roughly 410,000 compounds were called active. This list was built around the results that the source calls inconclusive (neither active nor inactive); the mix of calls is not that of the screen. Calls follow the shape of the dose curve; as a rule, active = well fitted activation curve with a large enough effect; inconclusive = small, poorly fitted or top-dose-only effect, or another doubt; inactive = no such curve, though single readings can be large or run the other way. Potencies of inconclusive entries are doubtful fits and often do not repeat.

Assay: qHTS of TDP-43 Inhibitors; also: nearly all actives have a fitted effect of over 50% in size; as to growth rescue (activation): % of control where 0% means no effect
Conditions: TDP-43 expressing yeast growth rescue, BacTiter-Glo, 24 h; growth rescue (activation): at 46.1 µM (top of the series) unless noted
In short: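 Cell-based yeast growth screen: TDP-43 expression induced in galactose, inoculum OD600=0.02 after raffinose pregrowth to mid-log. Read-out BacTiter-Glo luminescence at 24 hr, 30 deg C; inhibition of toxicity seen as signal increase.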
Potency is read from the fitted curve at half-maximal effect; tags tell the direction and shape of the fitted curve.

Potency, active:
COc1ccccc1C1CCN(C(=O)c2cccs2)CC1 12.6 µM, O=C(OCc1csc(-c2ccccc2)n1)c1ccc(O)cc1 10 µM, CC(C)C(C(=O)Nc1ccccc1)N1C(=O)c2ccccc2C1=O (stereo not given) 15.8 µM, O=[N+]([O-])c1cc(S(=O)(=O)Oc2ccccc2)ccc1Cl 11.2 µM, Nc1ccccc1Sc1cc(Cl)nnc1Cl 12.6 µM, FC(F)(F)c1cccc(NC(=S)NCc2ccccc2)c1 14.1 µM

Potency, inconclusive:
COc1ccc(C(=O)Cn2c(C)nc([N+](=O)[O-])c2Br)cc1 14.1 µM [activator, single point], Cn1c(Cn2c(=O)sc3ccccc32)nnc1SCc1ccc(F)cc1 3.55 µM [activator, partial curve], CCCCCCn1cc(CN2CC(N3CCN(CCO)CC3)CS2(=O)=O)nn1 (stereo not given) 10 µM [activator, partial curve], N#Cc1ccc(C2N=C(c3ccccc3)NO2)cc1 (stereo not given) 3.98 µM [activator, partial curve], Cc1ccc(CNc2nc3nc(C)c(Cl)c(C)n3n2)cc1 7.08 µM [activator, partial curve], Cc1cc(C)c(C)c(S(=O)(=O)N2CCN(c3ccc(O)cc3)CC2)c1C 15.8 µM [activator, single point], Cc1ccc2nc(N(Cc3cccnc3)C(=O)CCc3ccccc3)sc2c1 25.1 µM [activator, single point], O=[N+]([O-])c1ccc(C=NN2CCCCCC2)cc1 6.31 µM [activator, partial curve], Cc1nc(NC(=O)c2ccco2)sc1-c1csc(Nc2ccc(Cl)cc2)n1 20 µM [activator, partial curve], CCCCC1C(=O)N(c2ccccc2)N(c2ccc(O)cc2)C1=O (stereo not given) 1 µM [activator, full curve], Cc1ccc(NC(=O)c2csnn2)c(C)c1 3.55 µM [activator, partial curve], Cc1cccn2c(=O)c(C=O)c(N3CCN(c4ccc(F)cc4)CC3)nc12 35.5 µM [activator, single point], Cc1ccc(NC(=O)/C=C/c2cccc(C(F)(F)F)c2)cc1 3.16 µM [activator, partial curve], C=C[C@@](C)(O)CC[C@@H]1[C@@]2(C)CCCC(C)(C)[C@@H]2CC[C@@]1(C)O 14.1 µM [activator, single point], COc1ccc(NC(=O)c2cccc(OC(F)F)c2)cc1Cl 28.2 µM [activator, single point], CCOc1ccc(NC(=S)NS(=O)(=O)c2cc(Br)ccc2OCC)cc1 11.2 µM [activator, partial curve], COc1ccccc1-c1nc(C#N)c(N2CCCCCC2)o1 25.1 µM [activator, partial curve], COc1ccc(/C=C/C(=O)OCC(=O)NC2CCCC2)cc1 25.1 µM [activator, partial curve], Fc1ccc(CSc2ncnc3ccccc23)cc1 15.8 µM [activator, single point], CCn1c(C(=O)NCc2ccccc2)cc2sc(Cl)cc21 2.82 µM [activator, single point], CCOc1ccc(/C=C/c2nc(C#N)c(N3CCCCCC3)o2)cc1 15.8 µM [activator, partial curve], CCc1cccc(OCC(=O)Nc2cc(Cl)ccc2-n2cncn2)c1 25.1 µM [activator, single point], COc1ccccc1NC(=O)N1CCOc2ccccc21 10 µM [activator, partial curve], CCOC(=O)c1sc(NC(=O)C2CC2)cc1C 22.4 µM [activator, partial curve], O=C(NCc1ccc(F)cc1Cl)c1ccc(CSCc2ccccc2Cl)o1 12.6 µM [activator, single point], C/C(=N\NC(=O)CC(C)C)c1ccc(N2CCCCC2)cc1 35.5 µM [activator, single point], Cc1cccc(-n2ccnc2SCC(=O)Nc2cc(C(F)(F)F)ccc2Cl)c1 35.5 µM [activator, partial curve], O=C(NCCc1ccccc1)c1ccc(-c2ccccc2Cl)o1 28.2 µM [activator, partial curve], CCOc1cc(/C=N/NC(=O)CSc2nncn2C)ccc1OCc1ccccc1 10 µM [activator, partial curve, poor fit], O=C(NCCOC(=O)c1ccc(Cl)c(S(=O)(=O)N2CCCCC2)c1)c1ccncc1 12.6 µM [activator, partial curve], Nc1cc(C(F)(F)F)ccc1Nc1ccccc1 12.6 µM [activator, partial curve], Cn1ncc(Cl)c1C(=O)NC1C2CC3CC(C2)CC1C3 (stereo not given) 35.5 µM [activator, single point], Cc1ccc(CNC(=O)C2CC(c3cccc([N+](=O)[O-])c3)=NO2)o1 (stereo not given) 17.8 µM [activator, partial curve]

Growth rescue (activation), inconclusive:
O=C(OCc1ccc([N+](=O)[O-])cc1)c1cc([N+](=O)[O-])ccc1N1CCOCC1 45.5% [activator]

Growth rescue (activation), inactive:
COc1ccc(-c2nc(CS(=O)CC(=O)NCc3ccccc3Cl)c(C)o2)cc1OC (stereo not given) 23.7%, Cc1ccccc1OCC(=O)NNC(=O)c1ccc(-c2ccccc2)cc1 -20%, COc1ccc(-n2c(-c3cccc(OC)c3)nc(=S)c3c2CCCC3)cc1 -12.8%, COc1ccccc1NC(=O)Cn1c(=O)n(Cc2nc(C)no2)c(=O)c2cc3c(cc21)OCO3 20.9%, CC(=O)/C=C1\OCc2ccccc21 8.04%
